Paper PMC4336329 (PLoS ONE, 2015)
About 2,200 (0.71%) of roughly 310,000 compounds showed an effect of 50% or more. The effect is printed as a negative number. This is one part of the list.

target: human ether-à-go-go-related gene (hERG) potassium channel (human, UniProt Q12809); test: primary screen, population patch clamp on CHO cells stably expressing hERG
Sequence (Q12809 whole entry, looked up): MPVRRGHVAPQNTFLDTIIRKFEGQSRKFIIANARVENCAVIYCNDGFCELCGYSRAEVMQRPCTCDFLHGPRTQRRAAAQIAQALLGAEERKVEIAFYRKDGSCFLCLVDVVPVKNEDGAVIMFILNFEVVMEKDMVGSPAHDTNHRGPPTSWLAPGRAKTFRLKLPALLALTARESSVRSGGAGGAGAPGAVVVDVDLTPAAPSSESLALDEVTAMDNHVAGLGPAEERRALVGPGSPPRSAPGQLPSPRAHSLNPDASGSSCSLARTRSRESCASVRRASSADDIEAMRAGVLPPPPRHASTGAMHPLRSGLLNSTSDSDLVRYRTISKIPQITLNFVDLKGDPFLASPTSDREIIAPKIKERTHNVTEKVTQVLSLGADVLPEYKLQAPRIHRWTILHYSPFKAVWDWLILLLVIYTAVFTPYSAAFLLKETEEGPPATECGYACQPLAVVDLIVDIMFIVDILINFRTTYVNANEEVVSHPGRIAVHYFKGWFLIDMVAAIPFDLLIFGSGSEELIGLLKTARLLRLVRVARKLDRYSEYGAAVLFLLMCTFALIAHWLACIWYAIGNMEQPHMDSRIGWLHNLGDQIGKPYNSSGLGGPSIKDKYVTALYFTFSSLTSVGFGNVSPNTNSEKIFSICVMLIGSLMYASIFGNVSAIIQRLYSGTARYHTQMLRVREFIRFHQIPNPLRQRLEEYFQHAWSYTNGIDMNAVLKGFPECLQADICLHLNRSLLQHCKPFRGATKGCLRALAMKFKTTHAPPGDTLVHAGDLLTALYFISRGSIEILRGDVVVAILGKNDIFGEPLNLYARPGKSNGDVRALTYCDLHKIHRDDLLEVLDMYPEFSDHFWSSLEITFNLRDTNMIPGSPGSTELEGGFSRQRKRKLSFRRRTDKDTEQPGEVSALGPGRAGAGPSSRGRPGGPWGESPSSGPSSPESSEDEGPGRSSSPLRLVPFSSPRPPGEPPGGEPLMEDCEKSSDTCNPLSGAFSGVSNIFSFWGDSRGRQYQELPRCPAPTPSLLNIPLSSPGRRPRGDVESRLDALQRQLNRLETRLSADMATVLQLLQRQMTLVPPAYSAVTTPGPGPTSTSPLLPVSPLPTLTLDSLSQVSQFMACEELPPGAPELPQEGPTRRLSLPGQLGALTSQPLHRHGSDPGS

SMILES | hERG current change (%, negative = inhibition) at 1uM [%]
CC(=O)N1N=C2C3CCN(CC3)C2C1c1ccccc1 (stereo not shown) | 15.5
CC1C(c2ccccc2)=[N+]([O-])C2(CCCCC2)N1O (stereo not shown) | 6.07
COC(=O)c1cc(C(=O)OCC(=O)NNC(=O)c2cccs2)cc([N+](=O)[O-])c1 | 0.0453
CCOc1cc(/C=C2/SC(=Nc3ccccc3)N(Cc3cccnc3)C2=O)ccc1OCC#N | 9.81
O=C(Cn1cnc2ccccc2c1=O)NC1CCS(=O)(=O)C1 (stereo not shown) | 8.49
COc1ccccc1CNC(=O)CN(C)Cc1ccc(SC)cc1 | -7.53
Cc1ccc2c(c1)C=CC(C)N2C(=O)c1ccccc1 (stereo not shown) | 1.73
COc1ccc(CCc2nnc(CCC(=O)NCc3ccc4ncccc4c3)o2)cc1 | 11.7
NC(=O)c1ccccc1OCC(=O)N1CCCc2ccccc21 | 11.8
COc1ccc(NC(=O)Nc2cccc3ccccc23)cc1OC | 9.56
O=C(COc1ccccc1-c1ccccc1)N/N=C/c1cccnc1 | 2.3
CC(C)Cn1c(N)c(C(=O)COC(=O)c2cccc(Cl)c2)c(=O)n(C)c1=O | 4.97
NC(=O)C1=C[C@@H](c2ccc3c(c2)OCO3)C[C@@H](OCCCCO)O1 | 8.49
COCC(C)NC(=O)Cc1ccc(F)cc1 (stereo not shown) | 14.5
CCCN1Cc2cccc(C(=O)NC(C)c3cccs3)c2C1=O (stereo not shown) | -0.477
COC(=O)C1=CN(c2ccc(Cl)cc2)C=C(C(=O)OC)C1c1ccc([N+](=O)[O-])cc1 | 11.8
O=C(/C=C/c1cccc([N+](=O)[O-])c1)N1CCN(c2ccccn2)CC1 | 1.34
C(=N\n1cnnc1)/c1cccn1-c1ccccc1 | 6.03
CC(=O)N1c2ccc(S(=O)(=O)N3CCCC(C(=O)NCc4ccccc4)C3)cc2CC1C (stereo not shown) | 9.9
Cc1ccccc1OC(C)c1nc(-c2ccccc2)no1 (stereo not shown) | 2.6

SMILES | hERG current change (%, negative = inhibition) at 1uM [%]
Cc1nn(-c2ccccc2)c(C)c1/C=N/NC(=O)c1cccs1 | 4
CCN1CCN(S(=O)(=O)c2ccc(Cl)c(C(=O)N(C)Cc3cccc(Cl)c3Cl)c2)CC1 | -11.6
CCOc1ccccc1NC(=O)CC1SC(=N)N(c2ccccc2)C1=O (stereo not shown) | 7.17
Nc1nc(NCC2CCCO2)nc(Nc2ccccc2)c1[N+](=O)[O-] (stereo not shown) | -2.16
CC(=O)Oc1ccc(-c2cccc(C(=O)O)c2)cc1 | 11.3
CC(C)(C)NC(=O)COc1ccc(CNCc2cccnc2)cc1.Cl | 1.68
COC(=O)c1ccc(NC(=O)COc2cccc3c2OC(C)(C)C3)cc1 | 3.11
CCC(=O)n1nc(-c2ccccc2)nc1SCC(=O)Nc1ccc(C)cc1 | 8.41
C=CCOc1ccc(C(=O)CC)cc1OC | -7.9
CS(=O)(=O)N1CCN(C(=O)c2ccc(Cl)s2)CC1 | 8.31
CCS(=O)(=O)Nc1ccc2c(c1)OCO2 | 18
CN(CC1CCOCC1)C(=O)CC1C(=O)NCCN1CC1CCCCC1 (stereo not shown) | 11.9
S=C(NCC1CCCO1)N1CCN(Cc2ccccc2Cl)CC1 (stereo not shown) | 11.5
O=S1(=O)CCOC[C@H](c2ccccc2)N1Cc1ccccc1 | 10.4
Cn1c(-c2ccc3nc(N)sc3c2)nc2cc(N)ccc21 | 6.08
CN(Cc1nc(-c2ccccc2)no1)C(=O)c1ccc2c(c1)OCO2 | -3.39
CN(C)Cc1cc2ccccc2c2c1COC2 | 7.63
Cc1ccccc1NCc1nc2ccccc2n1C | 14.9
Cc1c(N=C2N=C(NC(=O)c3ccc(F)cc3)c3ccccc32)c(=O)n(-c2ccccc2)n1C | 1.94
CC(C)(C)NC(=O)c1ccccc1-c1nc2ccccc2s1 | 5.8

SMILES | hERG current change (%, negative = inhibition) at 1uM [%]
C=CCSC1=C(C#N)C(c2ccccc2C)CC(=O)N1 (stereo not shown) | 5.59
CCOC(=O)Cc1ccc(NS(=O)(=O)c2ccc(SC)cc2)cc1 | 7.39
CCOC(=O)c1ccc2nc(Nc3nc4ccc(F)cc4s3)sc2c1 | 2.31
Nc1n[nH]c2c1C1(CCCCC1)Cc1ccccc1-2 | 11.7
O=C(Cn1cnc2cc([N+](=O)[O-])ccc2c1=O)NC(=O)NCc1ccccc1 | 9.49
CCOC(=O)COc1ccccc1C1Nc2ccccc2C(=O)N1c1cccc(Cl)c1 (stereo not shown) | 1.92
Cc1sc2nc(SCC(=O)N(CCO)CCO)nc(N)c2c1C | 11.2
Cc1cc(=O)n(C(NC(=O)c2ccccc2)C(=O)c2ccccc2)cn1 (stereo not shown) | 10.2
CCCN(CCC)S(=O)(=O)c1ccc(C(=O)NCc2n[nH]c(=S)n2-c2ccc(Cl)c(Cl)c2)cc1 | 13.4
COc1cc2c(cc1NC(=O)CSc1nccn1C)oc1ccccc12 | 19.9
O=C(COc1ccccc1)Nc1nc(-c2cccnc2)cs1 | 0.973
Cc1ccc(S(=O)(=O)N(C)C)cc1NC(=O)COC(=O)CNC(=O)C12CC3CC(CC(C3)C1)C2 | 14.4
C=CCN(CC=C)S(=O)(=O)c1ccc2nsnc2c1 | 9.84
Cc1cc(OCCN2CC(C)OC(C)C2)ccc1[N+](=O)[O-].O=C(O)C(=O)O (stereo not shown) | -5.36
COc1ccc(S(=O)(=O)N(C)c2ccc(C(=O)N3CCN(C)CC3)cc2)cc1 | 14.2
CC1CCN(C(=O)CN2C(=O)NC(c3ccccc3)(c3ccccc3)C2=O)CC1 | 4.82
COc1ccc2c(CC(=O)N3CCc4cc(OC)c(OC)cc4C3)coc2c1 | 12.7
CCN(CC)C(=O)C1CCN(Cc2cccc(OCc3ccccc3)c2)CC1.O=C(O)C(=O)O | -12.6
